The whole screen tested about 52,000 compounds, of which about 4,300 (8.3%) were called active. Cut-off read from the data, not from the text of the source: active = survival mostly below about 52% (no sharp cut-off); inactive = mostly above about 56%. Some of the results follow.
Tested on: DeltatarO mutant
Assay: growth inhibition of S. aureus wild type versus tarO mutant, primary screen, teichoic acid synthesis inhibitors, RN4220, OD600 (AID 463173)
Conditions: OD600, 18 h, stronger effect = lower value, screened at 18.75 µg/mL (by protocol)

Structure (SMILES)	survival
COc1ccc(N2CCN(CCCNC(=O)c3cc(Nc4ccc(OC)cc4OC)nc4ccccc34)CC2)cc1	inactive: 87%
O=C(CCS(=O)(=O)c1ccccc1)N(Cc1cccnc1)c1nc2ccc(Cl)cc2s1	inactive: 92%
CCCN1Cc2cccc(C(=O)Nc3ccc(C(C)=O)cc3)c2C1=O	inactive: 88%
Cc1ccccc1Nc1c(-c2cc(Br)ccc2F)nc2ccccn12	inactive: 154%
CCOC(=O)C1CCC(CN(Cc2ccccc2)S(=O)(=O)c2ccc(Br)cc2)CC1 (stereo not given)	inactive: 83%
COc1cc(NC(=O)CCS(=O)(=O)c2ccc3c(c2)CC(=O)N3C)cc(OC)c1OC	inactive: 97%
COc1ccc(/C=C/c2nc(C#N)c(NCc3ccc(F)cc3)o2)cc1OC	inactive: 87%
CCOc1ccc(-c2cc(C(=O)Oc3ccc(C#N)cc3)no2)cc1	inactive: 54%
CCNC(=S)N1CCC(C(=O)c2ccc3c(c2)OCCO3)CC1	active: 58%
CCc1ccc(-n2c(=O)c3c4c(sc3n(CC(=O)N3CCCCC3CC)c2=O)CCC4)cc1 (stereo not given)	inactive: 85%
Cc1c(CCC(=O)NCCc2ccc(Cl)cc2)c(=O)oc2c(C)c(O)ccc12	inactive: 69%
Cc1c(CNC2CCCCC2)c(C(=O)O)c(C)n1Cc1cccc(Cl)c1	inactive: 85%
CCOc1ccccc1NC(=O)c1nc(SC(C)C)ncc1Cl	inactive: 113%
CCc1ccc(NC(=O)CN2C(=O)C(c3ccc(Cl)cc3)=NC23CCCCC3)cc1	inactive: 84%
Cc1ccc(NC(=O)Cn2c(=O)n(Cc3nc(C)no3)c(=O)c3ccccc32)c(Cl)c1	inactive: 99%
Cc1cccc(C)c1OCCCn1c(CCNC(=O)C2CCCCC2)nc2ccccc21	active: 1%
O=C(NC1CC2CCC(C1)N2Cc1nnnn1Cc1ccco1)NC12CC3CC(CC(C3)C1)C2 (stereo not given)	inactive: 55%
Cc1c(C(=O)Nc2cccc(Cl)c2)sc2nc3n(c(=O)c12)N=C(c1cccc(Br)c1)CS3	inactive: 73%
COc1cccc(C(=O)c2c(N)c(-c3nc(-c4ccccc4)cs3)c3ccccn23)c1	inactive: 82%
Cc1cc(C)nc(SCC(=O)Nc2ccc(N3CCOCC3)cc2)n1	inactive: 82%
Cc1cccc(-n2c(=O)c3c(c4cc(C)ccc4n3C)n(CC(=O)N3CCCC3)c2=O)c1	inactive: 98%
O=C(CN1C(=O)COc2ccccc21)NCCc1ccc(Cl)cc1	inactive: 94%
N#CC(C#N)C(CC(=O)c1cccs1)c1ccccc1 (stereo not given)	inactive: 99%

Structure (SMILES)	survival
CCOc1ccc(N(CC)S(=O)(=O)N2CCCC(C(=O)Nc3ccc(C(C)=O)cc3)C2)cc1 (stereo not given)	inactive: 82%
CC(C(=O)c1ccccc1)n1cnc2ccccc2c1=O (stereo not given)	inactive: 104%
CCCc1ncc(C(O)c2ccccc2OC)n1C (stereo not given)	inactive: 85%
CCCS(=O)(=O)c1nc(S(=O)(=O)c2ccc(C)cc2)c(N(C)Cc2ccccc2)s1	inactive: 86%
Cc1ccccc1C(=O)Nc1nnc2n1CCS2	inactive: 75%
CC(C)NC(=O)N1CCN(S(=O)(=O)c2ccc3c(ccn3C)c2)CC1	inactive: 81%
Cc1ccc(C)c(NC(=O)CN(C)S(=O)(=O)c2ccc3c(c2)CCC(=O)N3)c1	inactive: 85%
CCOC(=O)c1cc(-c2ccc(OC)cc2)n(CCC(=O)NCc2ccc(OC)cc2)c1C	inactive: 92%
C=CCN1CCN(C(c2ccccc2Cl)c2nnnn2C2CCCCC2)CC1 (stereo not given)	inactive: 97%
COc1ccc2nc(Cl)c(CN(C(=O)c3ccco3)C3CCCC3)cc2c1	inactive: 114%
COc1ccccc1CNC(=O)CCC1N=C2c3ccccc3N=C(SCC(=O)Nc3ccc(N(C)C)cc3)N2C1=O (stereo not given)	inactive: 99%
Cc1cccc(OCC(=O)Nc2cc(-c3ccccc3F)nn2-c2ccccc2)c1	inactive: 87%
Cc1cc(C(=O)N2CCN(c3cccc(C)c3C)CC2)c2c(C)nn(-c3ccccc3)c2n1	inactive: 128%
CCOC(=O)c1c(C)[nH]c(C)c1S(=O)(=O)N1CCCC(C(=O)NCc2cccc(OC)c2)C1 (stereo not given)	inactive: 78%
CCCC(=O)NC(C)c1nc2ccccc2n1Cc1ccccc1 (stereo not given)	inactive: 101%
Cc1ccc(C(=O)c2cn(CC(=O)NCc3ccccc3Cl)c3nc(C)ccc3c2=O)cc1	inactive: 86%
COc1cccc(N2CCN(C(=O)c3cc4c(=O)oc5ccc(C)cc5c4s3)CC2)c1	inactive: 89%
CCCCn1nc(NC(=O)c2cccc(Cl)c2)c2cc3cccc(C)c3nc21	inactive: 83%
CCCn1c2ccccc2c2cnn(CC(=O)N3CCCC(C)C3)c(=O)c21 (stereo not given)	inactive: 60%
COc1cc(NC(=O)N2CCC(CN3CCOCC3)CC2)cc(OC)c1OC	inactive: 91%
Nc1ccc2c(c1)OC1(CCCCC1)O2	active: 55%
CC(C)c1ccc(Nc2ncnc3onc(-c4ccc(F)cc4)c23)cc1	inactive: 80%
Cc1cc(Cl)ccc1NC(=O)Cn1nnc2sc(-c3ccccc3)cc2c1=O	inactive: 106%

Structure (SMILES)	survival
O=C(NCC1CCCO1)Nc1c[nH]c2c(Cl)cccc2c1=O (stereo not given)	inactive: 97%
COc1ccc(OC)c2sc(N3CCN(C(=O)CCS(=O)(=O)c4ccc(F)cc4)CC3)nc12	inactive: 94%
Cc1nc2nc(SCC(=O)NC3CCCCC3)nn2c(C)c1Cc1ccccc1Cl	active: 25%
CCCCn1c(SCC(=O)N2CCCC2)nc2ccccc2c1=O	inactive: 99%
COC(=O)c1ccc2c(c1)N(Cc1ccc(Cl)cc1)C(=O)c1ccccc1S2	inactive: 78%
COCCCNC(=O)CCc1c(C)nc2nc(-c3cc(OC)cc(OC)c3)nn2c1C	inactive: 83%
CC(C)N(Cc1ccccc1)S(=O)(=O)c1ccc(-c2cc(C(F)(F)F)on2)s1	inactive: 96%
CCCC(c1nnnn1CS(=O)(=O)c1ccc(C)cc1)N1CCC(C(N)=O)CC1 (stereo not given)	inactive: 89%
COc1ccc2[nH]c(=O)c(CN(Cc3ccco3)C(=S)NCc3ccco3)cc2c1	active: 65%
CC(C)OCCCNC(=O)CN1C(=O)COc2ccc(S(=O)(=O)N3CCCCCC3)cc21	inactive: 90%
CCc1ccccc1-n1c(C)nc2cc(C(=O)NCCc3ccc(Cl)cc3)ccc21	inactive: 91%
CC(C)c1ccc(N(CC(N)=O)S(C)(=O)=O)cc1	inactive: 85%
Cc1ccc(CNC(=O)C2CCN(S(=O)(=O)c3cn(C)cn3)CC2)cc1	inactive: 115%
O=C(NCCCc1nc2ccccc2n1Cc1ccc(Cl)cc1)C1CCCCC1	inactive: 64%
Cc1ccc(-n2ncc(C(=O)NCCN3CCCC3)c2C2CCN(C(=O)OC(C)(C)C)CC2)cc1C	inactive: 94%
Cn1nnc2c(N3CCN(c4cccc(Cl)c4)CC3)ncnc21	inactive: 71%
COCCN(Cc1cccs1)S(=O)(=O)c1cc(-c2cc(C)no2)ccc1C	inactive: 119%
COCCCNC(=O)c1c(NC(=O)Cc2coc3c(C)c(C)ccc23)sc2c1CCCC2	inactive: 62%
COc1cccc(CNC(=O)CCS(=O)(=O)c2ccc3c(c2)oc(=O)n3C)c1	inactive: 72%
CCC(Sc1nnc2c(n1)[nH]c1ccccc12)C(=O)Nc1nnc(C(C)C)s1 (stereo not given)	inactive: 67%
COC(=O)C1C(C(C)C)N(c2ccccc2)OC1(C)O (stereo not given)	inactive: 82%
CCCCOC(=O)c1c(N)n(-c2ccc(OC)cc2OC)c2nc3ccccc3nc12	inactive: 89%
CCCc1cc(NCCc2ccc(OC)cc2)n2ncnc2n1	inactive: 89%

Structure (SMILES)	survival
CCCCN(CC)CCCNC(=O)CS(=O)(=O)Cc1nc(-c2ccc(C)cc2)oc1C	inactive: 96%
CCOc1ccc(CCNC(=O)C2CCN(C(=O)N3CC(CC)Oc4ccccc43)CC2)cc1 (stereo not given)	inactive: 70%
CCCOc1ccc(C(=O)Nc2ccc3oc(-c4ccncc4)nc3c2)cc1	inactive: 62%
O=C(Nc1nnc(N2CCCCCC2)s1)Nc1cc(F)ccc1F	inactive: 103%
CCOCCCN(Cc1ccco1)S(=O)(=O)c1cc2c(cc1Cl)NC(=O)CO2	inactive: 72%
Cc1c2cnn(CC(=O)NCc3ccc(F)cc3)c(=O)c2c(C)n1Cc1cccc(Cl)c1	inactive: 70%
O=C(NCc1ccc(Cl)cc1)c1cnc2sc(N3CCOCC3)nn2c1=O	active: 52%
Cc1ccccc1-c1noc(-c2ccc(N3CCCCC3)c([N+](=O)[O-])c2)n1	inactive: 103%
COc1cc(NC(=O)CSc2nnc(C)n3c2cc2oc(C)cc23)cc(OC)c1	inactive: 63%
CCc1ccc(OCC(=O)NC(Cc2c[nH]c3ccccc23)C(=O)O)cc1 (stereo not given)	active: 40%
CC(C)C(=O)Nc1ccc2nc(SCC(=O)N3CCCC3)sc2c1	inactive: 84%
CCCN(C(=O)c1cc2c(=O)oc3ccccc3c2s1)c1ccc(CC)cc1	active: 31%
Cc1ccccc1Nc1cc(C(=O)NCCCN2CCN(c3cccc(Cl)c3)CC2)c2ccccc2n1	inactive: 88%
Cc1c(Cl)cccc1NC(=O)N1CCN(C(=O)c2nsc3ccccc23)CC1	inactive: 128%
CCc1ccc(NC(=O)c2ccc(CN3CC(=O)N4CCCCC4C3=O)cc2)cc1 (stereo not given)	inactive: 66%
Cc1ccc(C(C)C)c(OCCSc2nc(-c3ccccc3F)nc3cc(=O)[nH]n23)c1	inactive: 83%
Cc1c(CCC(=O)NCCc2ccccc2)c(=O)oc2c(C)c(O)ccc12	inactive: 80%
Cc1ccc(CCNS(=O)(=O)c2cc(-c3cc(C)no3)ccc2C)cc1	inactive: 96%
CCOc1ccc(C(=O)NCc2ccc3c(c2)CCN3C(=O)c2ccc(Cl)cc2)cc1	inactive: 91%
O=C(NC1CC(=O)N(c2cccc(F)c2)C1)c1cccs1 (stereo not given)	inactive: 85%
Cc1cccc(-n2ncc(C(=O)N3CCOCC3)c2C2CCN(C(=O)OC(C)(C)C)CC2)c1	inactive: 97%

Reference: PubChem BioAssay AID463173 (ICCB-Longwood Screening Facility, Harvard Medical School, 2010)
